The subject of assay [1] is Sorghum halepense (SORHA). The experiment in a line: Post-emergence efficacy against Sorghum halepense. Format: in vivo. Particulars: 100=total damage to plant, 0=no damage.
The test system of assay [2] is Amaranthus tuberculatus (AMATA). The experiment in a line: Post-emergence efficacy against Amaranthus tuberculatus. The note with it: 20DAA, 100=total damage to plant, 0=no damage.
The subject of assay [3] is Echinochloa crus-galli (ECHCG). In words: Post-emergence efficacy against Echinochloa crus-galli. Format: in vivo. The note with it: 100=total damage to plant, 0=no damage.
The test system of assay [4] is Amaranthus palmeri (AMAPA). In words: Post-emergence efficacy against Amaranthus palmeri. Format: in vivo. Particulars: 18DAA, rate 250 g/ha, 100=total damage to plant, 0=no damage.

SMILES strings stand for the structures.

The values that follow come from patent US20240341309A1, “HERBICIDAL COMPOSITIONS” (SYNGENTA CROP PROTECTION AG, priority 2021, published 2024).

Compound `O=C(O)COc1ccc(Cl)cc1Cl` [Formula B1, 2,4-D, reference compound] registered an Observed in assay [1] (17DAA, rate 250 g/ha) of 65.
For `COc1c(Cl)ccc(Cl)c1C(=O)O` [Formula B3g, dicamba, reference compound], the Observed in assay [2] (rate 250 g/ha) was 90.
`COc1c(Cl)ccc(-c2nc(C(=O)OCc3ccccc3)c(Cl)c(N)c2F)c1F` [Formula B4a, florpyrauxifen-benzyl, reference compound]: the Observed in assay [3] (15DAA, rate 4 g/ha) is 58.
`Nc1c(Cl)c(F)nc(OCC(=O)O)c1Cl` [Formula B5, fluroxypyr]: the Observed in assay [4] worked out at 79.
The compound `COC(=O)c1nc(-c2ccc(Cl)c(OC)c2F)cc(N)c1Cl` [Formula B6a, halauxifen-methyl, reference compound] had an Observed in assay [1] (18DAA, rate 250 g/ha) of 41.
In turn, `O=C(O)COc1nc(Cl)c(Cl)cc1Cl` [Formula B7, triclopyr, reference compound] returned an Observed in assay [3] (18DAA, rate 250 g/ha) of 19.
Take `CC#Cc1ccc(C2=C(OC(=O)OC)C3CCC(C3)C2=O)c(OC)c1` (centres unmarked) [Ic]: the Observed is 73 in assay [1] (17DAA, rate 12.5 g/ha); 87 in assay [1] (17DAA, rate 25 g/ha); 93 in assay [1] (17DAA, rate 50 g/ha); 98 in assay [1] (17DAA, rate 100 g/ha); 50 in assay [1] (18DAA, rate 12.5 g/ha); 87 in assay [1] (18DAA, rate 25 g/ha). The Observed is given as 5 in assay [2] (rate 12.5 g/ha); 5 in assay [2] (rate 25 g/ha); 5 in assay [2] (rate 50 g/ha); 5 in assay [2] (rate 100 g/ha); 66 in assay [3] (15DAA, rate 12.5 g/ha); 44 in assay [3] (18DAA, rate 12.5 g/ha). The Observed in assay [3] (18DAA, rate 25 g/ha) was found to be 65; in assay [3] (18DAA, rate 50 g/ha), 91.
